Reference: PubChem BioAssay AID686978 (National Center for Advancing Translational Sciences (NCATS), 2013)
About 64,000 (15%) of roughly 420,000 compounds were called active. Inconclusive means that the source gave no clear call. Such entries were picked first, then a sample of the others. The call rests on the fitted dose curve; in most records, active means well fitted inhibition curve with a large enough effect; inconclusive means small, poorly fitted or top-dose-only effect; inactive means flat fitted curve, though single readings scatter. Potencies of inconclusive entries are left out as doubtful fits.

Experiment: qHTS for Inhibitors of human tyrosyl-DNA phosphodiesterase 1 (TDP1): qHTS in cells in absence of CPT; further: nearly all actives have a fitted effect of over 55% in size
Conditions: DT40 Tdp1-/- hTDP1 cells, no CPT, ATP luminescence, 48 h; activity change, negative = growth inhibition: at 46.2 µM (top of the series) unless noted
In short: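 Cells were dispensed at 400 per well, compounds added by pin tool, plates incubated ≥48 hr at 37 °C, then CellTiter-Glo added for 30 min at room temperature before luminescence reading. Line: DT40 Tdp1-/- complemented with hTDP1; camptothecin omitted.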
On the % scale 0 is the no-effect control and ±100 the full control effect; potency means the concentration at half of the fitted maximal effect; tags describe the fitted curve by direction and shape.

Row | Compound | Potency | activity change, negative = growth inhibition
1 | Cc1ccc(CN2C(=O)N/C(=C\c3cccn3-c3cccc(C(=O)O)c3)C2=O)cc1 | active: 7.31 µM | 
2 | COc1ccc(NC(=O)CN(c2ccc(OC)c(Cl)c2)S(=O)(=O)c2ccccc2)c(OC)c1 | active: 23.1 µM | 
3 | S=C(NCc1ccncc1)Nc1ccc(Cl)cc1 | inconclusive [inhibitor, single point] | 
4 | O=C(CCS(=O)(=O)c1ccccc1)NNC(=O)COc1ccc(F)cc1 | inactive | 
5 | CCCCCOc1c(Cl)cc(C(=O)N(Cc2ccc(C)o2)C2CCS(=O)(=O)C2)cc1Cl (stereo not given) | active: 16.4 µM | 
6 | Cc1c(O)c(S(=O)c2ccccc2)c(=O)n(-c2ccccc2)c1-c1ccccc1 (stereo not given) | inactive | 
7 | COc1ccc(-c2cc(CC3(C(=O)O)CCN(C(=O)OC(C)(C)C)CC3)on2)c(OC)c1 | inactive | 
8 | O=C(c1ccc(Cl)c(S(=O)(=O)N2CCc3ccccc3C2)c1)N1CCN(c2ccccc2)CC1 | inconclusive [inhibitor, single point] | 
9 | COc1ccccc1NC(=O)C(=O)NCC1CCCN1S(=O)(=O)c1cccs1 (stereo not given) | inconclusive [inhibitor, single point] | 
10 | CCCn1cc(S(=O)(=O)c2ccccc2)c(=O)c2cc(F)c(N3CCCC(C)C3)cc21 (stereo not given) | inconclusive [inhibitor, single point] | 
11 | Cc1csc(/C(=N\O)c2csc(C)n2)n1 | inconclusive [inhibitor, single point] | 
12 | COc1ccc(C)cc1NC(=O)c1c(C)oc2ncn(CC(C)C)c(=O)c12 | active: 23.1 µM | 
13 | O=C(NCCCl)Nc1cccc(Br)c1 | inactive | 
14 | COc1ccc(NC(=O)CNC(=O)c2nn(-c3ccc(OC)c(OC)c3)c(=O)c3ccccc23)c(OC)c1 | inconclusive [inhibitor, full curve, poor fit] | 
15 | O=C(OCc1c(Cl)cccc1Cl)c1ccncc1 | inactive | 
16 | CN(C)CCNC(=O)COc1cccc(Cl)c1 | inactive | 
17 | CCCN(CCC)CCNC(=O)C1c2ccccc2C(=O)N2CCc3ccccc3C12 (stereo not given) | inactive | 
18 | O=C(c1ccnc(-n2cnnn2)c1)N1CCOc2ccc(C(O)CCc3ccccc3)cc2C1 (stereo not given) | inactive | 
19 | CCCCCCN1C(=O)C(O)=C(C(C)=O)C1c1ccccc1[N+](=O)[O-] (stereo not given) | inconclusive [inhibitor, single point] | 
20 | CC(NC(=O)Nc1ccccc1)C(c1cccs1)N1CCN(c2ccccc2)CC1 (stereo not given) | active: 23.1 µM | 
21 | O=C(NCc1cccc(Cl)c1)c1ccc(-n2cncn2)c2ccoc12 | inconclusive [inhibitor, single point] | 
22 | Cc1sc2ncn(CC(=O)NCCCN3CC(C)CC(C)C3)c(=O)c2c1S(=O)(=O)N1CC(C)CC(C)C1 (stereo not given) | inconclusive [inhibitor, single point] | 
23 | COc1cc(NC(=O)C(C)N2CCN(C(=O)C3CC3)CC2)cc(OC)c1 (stereo not given) | inactive | 
24 | CC(Sc1ccc(S(=O)(=O)N2CCOCC2)cn1)C(=O)Nc1ccc(Cl)cc1Cl (stereo not given) | inconclusive [inhibitor, single point] | 
25 | Cc1cccc(NC(=O)CNC(=O)CSc2nnc(C(F)(F)F)n2C)c1C | inactive | 

Row | Compound | Potency | activity change, negative = growth inhibition
26 | Cc1ccc(CSCC(=O)N2CCN(c3ccccc3F)CC2)cc1 | inconclusive [inhibitor, single point] | 
27 | CCC(CC)c1nnc(NC(=O)c2ccc3c(c2)OCO3)s1 | inconclusive [inhibitor, single point] | 
28 | COC(=O)c1ccc(C(=O)OC)c(NC(=O)COC(=O)CCOc2ccc(C)cc2)c1 | inactive | 
29 | CC1CN(C(=O)CCS(=O)(=O)c2ccccc2)CC(C)O1 (stereo not given) | inactive | 
30 | O=c1[nH]c(=S)[nH]c2nccnc12 | inactive | 
31 | CCN(CC)S(=O)(=O)c1ccc(NC(=O)c2ccccn2)cc1 | inactive | 
32 | Cc1ccccc1Cn1nnc(C(=O)Nc2ccc3c(c2)OCCO3)c1N | inconclusive [inhibitor, partial curve, poor fit] | 
33 | Cc1c(C(=O)NN)nn(-c2ccc(F)cc2)c(=O)c1C#N | inactive | 
34 | COCCN1Cc2cccc(C(=O)NCc3ccc4c(c3)OCO4)c2C1=O | inactive | 
35 | C[C@H](NC(=O)Nc1cccc(Br)c1)C(=O)O | inactive | 
36 | COc1ccccc1N1CCN(/N=C/c2cc(OC)c(OC(C)=O)c(OC)c2)CC1 | inconclusive [inhibitor, single point] | 
37 | COc1ccc(CN2CCCN(S(=O)(=O)c3ccc(Br)cc3)CC2)cc1 | active: 18.4 µM | 
38 | Cc1ccc(C(=O)NCCCc2ccccc2)c(Cl)c1 | inactive | 
39 | Oc1ccccc1N=Cc1sc2ccccc2c1Cl | active: 18.4 µM | 
40 | O=C(Nc1ccc(Cl)cc1)N1CCC(c2nc(-c3ccc(F)cc3)no2)CC1 | active: 11.2 µM | 
41 | COC(=O)[C@@]1(Sc2ccc(C)cc2)CC(=O)N(C(=O)CCc2ccccc2)[C@@H]1c1ccccc1 | inconclusive [inhibitor, single point] | 
42 | COc1ccc(-c2cn3c(C)c(C(=O)Nc4cccc(C)n4)sc3n2)cc1 | active: 23.1 µM | 
43 | CCCNC(=O)c1cc2c(c(-c3cccc(-c4ccc(F)cc4)c3)n1)[C@H](CCO)N(S(=O)C(C)(C)C)C2 (stereo not given in full) | active: 23.1 µM | 
44 | C=Cn1c(N2CCOCC2)nc2c1c(=O)[nH]c(=O)n2C |  | inconclusive: -30% [inhibitor]
45 | Cc1cc(/C=C2/NC(=O)NC2=O)c(C)n1C | inconclusive [inhibitor, single point] | 
46 | CCN[C@@H]1C[C@H](N)[C@@H](OC2OC(CN)=CCC2N)[C@H](O)[C@H]1O[C@H]1OC[C@](C)(O)[C@H](NC)[C@H]1O (stereo not given in full) | inactive | 
47 | Cc1cccc(-c2nnc(SCC#N)n2-c2ccccc2)c1 | inconclusive [inhibitor, partial curve] | 
48 | Cc1ccc(C)c(OCCNc2ncccc2[N+](=O)[O-])c1 | inconclusive [inhibitor, single point] | 
49 | CCOc1ccc(OCCN2C(=O)c3ccccc3C2=O)cc1 | inactive | 
50 | Cc1ccc2oc(=O)c3cnn(CC(=O)N4CCN(c5ccccn5)CC4)c3c2c1 | inconclusive [inhibitor, single point] | 

Row | Compound | Potency | activity change, negative = growth inhibition
51 | O=C(CCc1nc2sc3c(c2c(=O)[nH]1)CCCC3)Nc1ccccc1Cl | inconclusive [inhibitor, full curve] | 
52 | CC(=O)Nc1ccc(S(=O)(=O)Nc2cccc(-n3c(C)nc4ccccc4c3=O)c2)cc1 | inactive | 
53 | Cn1c(C(C(=O)NCC2CCCO2)N(CCc2ccccc2)C(=O)Cn2nnc3ccccc32)nc2ccccc21 (stereo not given) | inconclusive [inhibitor, single point] | 
54 | CCOC(=O)c1c(NC(=O)COc2cc(C)ccc2C(C)C)sc(C)c1C | inactive | 
55 | COc1ccc(N2C(=O)CC(NCc3ccncc3)C2=O)cc1 (stereo not given) | inactive | 
56 | CC(=O)Nc1ccc2c(c1)C(=O)c1ccccc1C2=O | inconclusive [inhibitor, single point] | 
57 | COCCNc1nc(-c2ccccc2F)c2sc(-c3ccccc3)cc2n1 | inconclusive [inhibitor, single point] | 
58 | O=C(C[C@H]1C(=O)N(CCc2ccccc2)C[C@@H]1c1ccccc1)Nc1ccccc1 |  | inconclusive: -35.8% [inhibitor]
59 | COc1cc(-c2[nH]ncc2CN2CCCC2c2nonc2C)cc(OC)c1OC (stereo not given) | inconclusive [inhibitor, single point] | 
60 | Cc1cc2occ(CC(=O)N(C)CC(=O)Nc3ccccc3Cl)c2cc1C | inconclusive [inhibitor, single point] | 
61 | CCOC(=O)N1CCN(C(=O)CS(=O)(=O)c2cn(Cc3ccccc3Cl)c3ccccc23)CC1 | inconclusive [inhibitor, partial curve] | 
62 | O=[N+]([O-])c1ccc(NN=CC2CCCCCC2)c([N+](=O)[O-])c1 | active: 13 µM | 
63 | COc1ccc(-n2nc3c(c2NC(=O)CCCl)CSC3)cc1 | active: 18.4 µM | 
64 | CN(Cc1ccccc1Cl)C(=O)c1cc2ccccc2o1 | inconclusive [inhibitor, single point] | 
65 | Cc1ccnc(NC(=O)C2CCN(S(=O)(=O)c3cccc4nsnc34)CC2)c1 | inactive | 
66 | COc1cccc(C(=O)NC(=S)Nc2ccccc2N2CCOCC2)c1 | inconclusive [inhibitor, single point] | 
67 | CCc1c(C)c2ccc(OCC(=O)N(C)C)c(C)c2oc1=O | inconclusive [inhibitor, partial curve, poor fit] | 
68 | Cc1nn(CC(=O)Nc2cccc(S(N)(=O)=O)c2)c(C)c1[N+](=O)[O-] | inactive | 
69 | COCCNCC1C(Oc2ccc(Cl)cc2)C(=O)N1c1ccccc1C (stereo not given) | inconclusive [inhibitor, single point] | 
70 | CCOC(=O)Cc1c(C)[nH]n(-c2ccccc2)c1=O | inactive | 
71 | COc1ccc2nc(NC(=O)CCc3cc(OC)c(OC)c(OC)c3)sc2c1 | active: 20.6 µM | 
72 | Cc1nn(CC(=O)N2CCCCC2)c(=O)c2nn(-c3ccccc3)c(C)c12 | inactive | 
73 | O=C(CCN1C(=O)/C(=C/c2cccs2)SC1=S)Nc1cccc(O)c1 | inconclusive [inhibitor, single point] | 
74 | COc1ccc(Cc2nn3c(-c4ccccc4Br)nnc3s2)cc1 | inconclusive [inhibitor, single point] | 
75 | O=C(NCCC1CCCCN1S(=O)(=O)c1ccccc1)C(=O)NCc1ccncc1 (stereo not given) | inconclusive [inhibitor, single point] | 
